Assay results taken from paper PMC4336329 (PLoS ONE, 2015).
Among all 310,000 compounds or so, about 14,000 (4.5%) showed an effect of 50% or more. The effect is printed as a negative number. This is one part of the list.

Target: human ether-à-go-go-related gene (hERG) potassium channel (human, UniProt Q12809)
Test: primary screen, population patch clamp on CHO cells stably expressing hERG
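Further: peak tail current of the secondary pulse compared with the same well before compound.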

human ether-à-go-go-related gene (hERG) potassium channel, sequence (Q12809 whole entry, looked up): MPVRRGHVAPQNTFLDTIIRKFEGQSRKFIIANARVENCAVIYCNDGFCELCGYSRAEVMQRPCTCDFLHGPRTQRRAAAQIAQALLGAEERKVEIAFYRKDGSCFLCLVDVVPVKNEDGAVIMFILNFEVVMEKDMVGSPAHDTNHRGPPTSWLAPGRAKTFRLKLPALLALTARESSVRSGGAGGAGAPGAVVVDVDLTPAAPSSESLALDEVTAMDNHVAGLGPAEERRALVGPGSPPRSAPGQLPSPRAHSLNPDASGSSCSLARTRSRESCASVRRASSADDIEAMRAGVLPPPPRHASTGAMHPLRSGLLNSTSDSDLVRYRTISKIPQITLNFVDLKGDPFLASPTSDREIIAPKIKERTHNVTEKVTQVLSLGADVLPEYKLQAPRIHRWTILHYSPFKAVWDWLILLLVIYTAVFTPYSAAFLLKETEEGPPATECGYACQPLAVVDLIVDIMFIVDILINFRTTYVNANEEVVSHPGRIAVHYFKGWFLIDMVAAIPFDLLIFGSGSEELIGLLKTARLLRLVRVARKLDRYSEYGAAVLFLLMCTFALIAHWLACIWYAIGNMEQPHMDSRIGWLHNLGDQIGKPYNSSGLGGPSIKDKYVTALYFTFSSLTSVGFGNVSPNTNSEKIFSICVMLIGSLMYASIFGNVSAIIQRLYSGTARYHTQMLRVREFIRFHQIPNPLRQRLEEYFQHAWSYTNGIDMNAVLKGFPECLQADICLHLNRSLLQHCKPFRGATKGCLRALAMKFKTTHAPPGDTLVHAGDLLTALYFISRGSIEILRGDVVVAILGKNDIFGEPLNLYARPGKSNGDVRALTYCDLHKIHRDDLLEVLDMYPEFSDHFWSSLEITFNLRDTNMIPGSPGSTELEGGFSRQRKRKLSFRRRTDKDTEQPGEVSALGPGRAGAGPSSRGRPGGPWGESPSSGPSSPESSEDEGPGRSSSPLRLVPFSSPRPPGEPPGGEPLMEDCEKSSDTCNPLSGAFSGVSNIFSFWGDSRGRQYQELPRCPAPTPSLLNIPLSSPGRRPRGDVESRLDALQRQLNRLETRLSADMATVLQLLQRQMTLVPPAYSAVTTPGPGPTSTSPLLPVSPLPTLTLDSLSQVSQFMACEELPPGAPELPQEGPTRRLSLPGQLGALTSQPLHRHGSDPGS

| SMILES | hERG current change (%, negative = inhibition) at 10uM [%] |
| --- | --- |
| CC(NC(=O)Cn1ncc(Cl)c(Cl)c1=O)C12CC3CC(CC(C3)C1)C2 (stereo not drawn) | 15.5 |
| COC(=O)c1cc(C)nc(Sc2ccccc2NC(C)=O)n1 | 8.41 |
| CCOC(=O)C1(C)NC(c2ccc(OC)c(OC)c2)C2C(=O)N(CC)C(=O)C21 (stereo not drawn) | -13.9 |
| CCCn1cc(S(=O)(=O)c2ccc(C)cc2)c(=O)c2cc(OC)c(OC)cc21 | -0.0977 |
| O=C(COc1ccc(Cl)cc1)Nc1ccc2c(c1)C(=O)NC2=O | 15.6 |
| CCCc1c(C)c2cc(C)ccc2[nH]c1=O | -25.3 |
| CC(=O)Nc1nnc(SCc2cccc(F)c2)s1 | 2.05 |
| CC1CCC2(CC1)Nc1ccccc1C(=O)N2c1ccccc1 (stereo not drawn) | 5.23 |
| CCOc1nc2ccccc2nc1C | 14.9 |
| COC(=O)c1sccc1NC(=S)N1CCN(C)CC1 | 0.218 |
| O=C(O)C(=O)O.c1ccc(CN2CCN(C(c3ccccc3)c3ccccc3)CC2)cc1 | 2.22 |
| O=C1NN=C(c2ccc(Cl)cc2)CC1c1cccc(Cl)c1 (stereo not drawn) | -4.64 |
| O=S(=O)(c1ccc(NC(=S)Nc2ccc3c(c2)OCO3)cc1)N1CCOCC1 | 13.1 |
| COc1ccccc1C(=O)NCCC(=O)NCc1ccncc1 | -4.37 |
| CCOC(=O)c1ccc(NS(=O)(=O)c2c(C)nc3sccn3c2=O)cc1 | 1.63 |
| COc1ccc(-n2c(CN3CCC(C(N)=O)CC3)nc3ccc([N+](=O)[O-])cc3c2=O)c(OC)c1 | -3.9 |
| O=C1CCC(C(=O)NCc2ccccc2)N1 (stereo not drawn) | 19.1 |
| NS(=O)(=O)c1ccc(NS(=O)(=O)/C=C/c2ccccc2)cc1 | 6.55 |
| Cc1c(NC(=O)Nc2c(Cl)cccc2Cl)c(=O)n(-c2ccccc2)n1C | -6.03 |
| O=C(COC(=O)Cc1n[nH]c(=O)c2ccccc12)Nc1ncc(Cl)cc1Cl | -20.6 |
| Clc1ccc2c(c1)CNc1c(ncnc1N1CCOCC1)O2 | -10.1 |
| CCc1sc(NC(=O)CN2CCC(C(N)=O)CC2)nc1-c1ccccc1 | -33.6 |

| SMILES | hERG current change (%, negative = inhibition) at 10uM [%] |
| --- | --- |
| CC(=O)N(CCCN(C)C)Cc1ccccn1 | 15.9 |
| CCN(CC)CCn1nc2c3c(cccc3c1=O)-c1ccccc1-2 | -70.2 |
| CC(=O)Nc1ccc(S(=O)(=O)N2CCN(CC3CC4C=CC3C4)CC2)cc1.O=C(O)C(=O)O (stereo not drawn) | 1.05 |
| CCOC(=O)c1c(NC(=O)c2ccc(C)cc2)sc2c1CC(C)(C)NC2(C)C | -10.6 |
| COc1ccccc1NC(=O)c1c(Nc2ccccc2C)sc(C(=O)Nc2cccc(Cl)c2)c1N | 6.04 |
| CCOC(=O)C1CCN(S(=O)(=O)CCNC(=O)c2ccccc2)CC1 | -2.78 |
| CC1CCC(C(C)C)C(OC(=O)COC(=O)c2ccccc2N)C1 (stereo not drawn) | 9.64 |
| Cc1ccc(-n2nnnc2Sc2ccc(S(=O)(=O)NCCN(C)C)cc2[N+](=O)[O-])cc1 | -8.17 |
| N#Cc1cnc2cc(-c3ccccc3)nn2c1N | 7.28 |
| O=C(CC1COc2ccccc2O1)Nc1ccccn1 (stereo not drawn) | 9.43 |
| Cc1cc(NC(=O)c2cn(C3CCCCC3)c(=O)c3c2c2ccccc2n3C)no1 | 12.9 |
| O=C(CSc1nc(-c2ccccc2)nn1C(=O)c1ccccc1)Nc1cccc([N+](=O)[O-])c1 | 2.83 |
| COCc1nnc(NC(=O)CCCCCN2C(=O)c3ccccc3C2=O)s1 | 0.949 |
| CCCN(C(=O)CCl)C1=CCCCC1 | 32.5 |
| O=C(c1ccccc1)c1cn(CC(=O)N2CCCC2)c2ccccc12 | -8.1 |
| CC(C(=O)N=c1sc2ccccc2n1C)N1C(=O)C2CC=CCC2C1=O (stereo not drawn) | -40.2 |
| Cc1cc(C(=O)N/N=C/c2ccc3ccccc3c2)n[nH]1 | 20.8 |
| O=[N+]([O-])c1ccc(Cl)c(/C=N/n2c(-c3ccncc3)n[nH]c2=S)c1 | 18.3 |
| Cc1ccc2c(c1)-c1c(ssc1=S)C(C)(C)N2C(=O)CSc1nncn1C | -19.6 |
| O=C1C(Cc2cnc[nH]2)NC(=S)N1c1ccccc1 (stereo not drawn) | 15.7 |
| COc1ccc(NC2CCCN(C(=O)COc3ccc(C)cc3)C2)cc1 (stereo not drawn) | -22.5 |
| COc1ccc(NC(=O)CSc2nnc3ccc(-c4ccccn4)nn23)cc1OC | -3.98 |

| SMILES | hERG current change (%, negative = inhibition) at 10uM [%] |
| --- | --- |
| COc1ccc(CN2[C@@H](CC(=O)O)c3ccccc3S2(=O)=O)cc1 | 19.7 |
| CCN(CC)c1ccc(/C=N/NS(=O)(=O)c2cccc([N+](=O)[O-])c2)cc1 | 1.05 |
| C/C(=N\N1CCN(c2ccccc2)CC1)c1ccco1 | 12 |
| COC(=O)c1ccc(C(=O)Nc2nnc(-c3cccnc3)o2)cc1 | 23.4 |
| COc1ccc(C2C(C#N)=C(N)N(N(C)C)C3=C2C(=O)CC(C)(C)C3)cc1 (stereo not drawn) | 3.38 |
| CC1CN(S(=O)(=O)c2ccc(F)cc2)CN1C(=O)N1CCOCC1 (stereo not drawn) | 17.6 |
| COCCNC(=S)N/N=C/c1ccc(OCc2ccc(C(=O)OC)cc2)cc1 | 0.356 |
| COc1ccc(CC(=O)NC2CC(C)(C)NC(C)(C)C2)cc1OC.Cl | 16.9 |
| O=C1NC(c2cccc(Br)c2)=N/C1=C\c1ccco1 | -16.3 |
| Cc1cc(C)cc(NC(=O)C2C3C=CC4(O3)C2C(=O)N(CCCN2CCCC2)C4C(=O)NC2CCCC(C)C2C)c1 (stereo not drawn) | 25.3 |
| CCC(CC)NC(=O)c1cc(S(=O)(=O)N2CCCCC2)ccc1N1CCOCC1 | -20.3 |
| CCc1nc(N2CCCCC2C)c2oc3ccccc3c2n1.Cl (stereo not drawn) | 6.37 |
| CC(C(=O)O)c1ccc(C(=O)c2cccs2)cc1 (stereo not drawn) | -5.25 |
| COc1cccc(C(=O)NC(=S)Nc2ccc3[nH]c(=O)[nH]c3c2)c1 | -70.3 |
| CCOc1ccc(N2C(=O)/C(=C\c3cccs3)C(=O)NC2=S)cc1 | 17.7 |
| CC1=CC(C)(C)N2C(=O)C3(C(C#N)=C(N)OC4=C3C(=O)CCC4)c3c(C)c(C)cc1c32 (stereo not drawn) | 8.02 |
| Clc1ccc(-c2c[n+]3c(n2-c2ccccc2)SCC3)cc1.[Cl-] | -62.7 |
| CC(O)[C@H]1CNC(=O)C(=O)N1CC1(c2ccccc2)CC1 (stereo partly drawn) | 27.2 |
| Cc1c(NS(=O)(=O)c2ccc3nc(COc4ccccc4Cl)[nH]c3c2)c(=O)n(-c2ccccc2)n1C | -17.5 |
| Cc1ccc(C(C(=O)NC2CCCC2)N(Cc2ccc(F)cc2)C(=O)c2snc(C(N)=O)c2N)o1 (stereo not drawn) | -24.2 |
| O=C(COC(=O)c1ccc(Br)o1)NC1CCCCC1 | 19.3 |
| COc1ccc(/C(C)=N/NC(=O)C2CC2)cc1 | -7.63 |

| SMILES | hERG current change (%, negative = inhibition) at 10uM [%] |
| --- | --- |
| COC(=O)c1ccccc1NC(=O)CSc1nc(C)cc(C)n1 | 10.5 |
| COc1cc2c(cc1NC(=S)NC(=O)/C=C/c1ccco1)oc1ccccc12 | 22.2 |
| O=C(NCC(c1ccco1)N1CCc2ccccc21)C(=O)Nc1ccccc1 (stereo not drawn) | -1.69 |
| O=C(CSc1nc(-c2ccccc2)c(-c2ccccc2)[nH]1)Nc1ccc2c(c1)OCO2 | -8.24 |
| CCOc1ccc(NC(=O)Cn2nnc(-c3ccccc3F)n2)cc1 | -13.1 |
| CC(=O)c1c(C)[nH]c(C(=O)OC(C)C(=O)Nc2ccc(C)c(S(=O)(=O)N3CCOCC3)c2)c1C (stereo not drawn) | -12.5 |
| CCN1C(=O)[C@H]2[C@@H](c3ccc(-c4ccc(Cl)c(Cl)c4)cc3)N[C@@](Cc3ccccc3)(C(=O)OC)[C@H]2C1=O.O=C(O)C(F)(F)F | 1.81 |
| COc1ccc(Br)c(C(=O)Nc2cccc(Cl)c2Cl)c1 | -0.634 |
| O=C(c1cccs1)c1cn(Cc2ccccc2Cl)c2ccccc12 | 14.5 |
| CC(O)Cn1c(N2CCCC2)nc2c1c(=O)n(C)c(=O)n2C (stereo not drawn) | 14.1 |
| COc1cc2c(cc1OC)C(c1ccc([N+](=O)[O-])cc1)NCC2 (stereo not drawn) | -20.3 |
| CC(NC(=S)Nc1ccc(Cl)cc1Cl)C(c1cccs1)N1CCCC1 (stereo not drawn) | -17.9 |
| CS(=O)(=O)Nc1ccc(C(=O)Nc2ccccc2Sc2ccccc2)cc1 | -27.3 |
| CCC(Sc1nc2ccccc2s1)C(=O)Nc1nnc(C)s1 (stereo not drawn) | -8.55 |
| COc1ccccc1/C=C/C=N/NC(=O)c1ccncc1 | 6.22 |
| CCN(CC(=O)NCc1cccs1)C(=O)/C=C/c1ccc(C)cc1 | -29.4 |
| CCOc1ccccc1NC(=O)Cn1c(=O)oc2cc(Cl)ccc21 | 21 |
| CCCCCNC(=O)C(C#N)c1nc2ccccc2nc1N1CCCC1 (stereo not drawn) | 12.5 |
| Cc1cc(C(=O)Nc2c(C)nn(Cc3ccccc3)c2C)on1 | 1.26 |
| CCOc1cc(/C=N/NC(=O)Cc2ccc(C(F)(F)F)cc2[N+](=O)[O-])ccc1O | -0.812 |
| CCOC(=O)N1CCN(CC(O)COc2c(OC)cccc2OC)CC1.Cl (stereo not drawn) | 2.85 |
